Laboratory results: the supplement of paper PMC3334620
In all, about 33,000 sequences were measured (“E-score (-0.5 to 0.5)”: median about -0.041, highest 2% from about 0.37 on). Some of the results follow.

Biological target: T1, Ecm22 (UniProt Q05958)
T1 sequence: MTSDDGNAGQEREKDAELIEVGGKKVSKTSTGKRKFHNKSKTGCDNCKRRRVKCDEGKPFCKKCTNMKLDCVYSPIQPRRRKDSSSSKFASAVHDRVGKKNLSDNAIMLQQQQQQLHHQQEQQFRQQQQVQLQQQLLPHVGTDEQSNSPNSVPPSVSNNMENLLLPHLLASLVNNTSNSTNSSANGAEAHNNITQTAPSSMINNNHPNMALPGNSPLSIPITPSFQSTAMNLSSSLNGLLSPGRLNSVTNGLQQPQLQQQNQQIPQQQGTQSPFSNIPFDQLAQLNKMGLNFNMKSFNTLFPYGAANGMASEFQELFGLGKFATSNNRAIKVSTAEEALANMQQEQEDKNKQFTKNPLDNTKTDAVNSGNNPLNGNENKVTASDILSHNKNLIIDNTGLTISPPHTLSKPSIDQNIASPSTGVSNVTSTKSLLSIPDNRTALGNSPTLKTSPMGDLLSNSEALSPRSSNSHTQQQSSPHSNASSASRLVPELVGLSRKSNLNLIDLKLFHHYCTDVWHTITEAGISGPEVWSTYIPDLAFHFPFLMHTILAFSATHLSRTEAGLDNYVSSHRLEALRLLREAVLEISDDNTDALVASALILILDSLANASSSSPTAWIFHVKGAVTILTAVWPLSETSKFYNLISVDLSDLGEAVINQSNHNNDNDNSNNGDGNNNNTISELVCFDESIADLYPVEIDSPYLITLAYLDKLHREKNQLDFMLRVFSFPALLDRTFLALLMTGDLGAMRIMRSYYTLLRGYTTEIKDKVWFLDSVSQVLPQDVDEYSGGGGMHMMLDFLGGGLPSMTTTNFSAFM
Experiment: PBM E-score (8-mer binding enrichment) (E-score (-0.5 to 0.5)); higher = stronger / more preferred TF binding; most listed sequences are background and not binding sites
Conditions: protein concentration: 200 nM; construct: GST-full length
Method: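 Universal 'all 10-mer' protein binding microarrays (Agilent AMADID 015681) probed with GST-tagged S. cerevisiae TFs (full-length or DBD) made by in vitro transcription/translation (PURExpress), about 100-200 nM. Bound TF was detected with fluorescent anti-GST. Each ungapped 8-mer (which stands for itself and its reverse complement) is scored by the PBM enrichment score (E-score), a modified Wilcoxon-Mann-Whitney statistic from -0.5 to +0.5, computed with the Universal PBM Analysis Suite. Scale: above 0.35 generally sequence-specific binding.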

Sequence	PBM E-score
GACTCCCC	-0.197
AACCCCAC	-0.0876
GCGGCGTA	0.155
CAAGCACG	0.0668
AACCCCAT	-0.202
CGGCCCAG	-0.0878
CCTCGACG	-0.141
ACCACTAG	-0.253
ACCGTCAT	-0.0527
AACCTTGT	-0.173
CAGGGGTA	-0.123
CGCTAGCG	-0.053
TCTTCCCA	-0.289
AAGAATGA	-0.187
GCGACAGC	0.069
AAGATGCT	0.0411
ACTCCAGC	0.0201
CCAATCCA	-0.217
CCCGTCCG	-0.309
CATAGAAG	-0.203
CAGCGGTA	-0.013
ACGCCGCA	0.156
TCCCTCCA	-0.312
AGCCTAGA	-0.178
CGTAGGGC	0.0387

Sequence	PBM E-score
AATTGACA	-0.099
GAAATGGC	0.0146
AAAAGCGC	-0.0326
ACGGGACT	0.0948
GATAAATC	0.0768
CAGTTACC	-0.106
CGAGAGCC	0.0756
ACCTAAGT	-0.0115
ATTGTCAA	-0.0485
AACTAACC	0.205
TCGAATCA	0.0193
CATTCCTA	-0.0714
ACTCCTTA	-0.0566
GCCCACAA	-0.164
ACGGCACC	0.11
AAGTATAA	0.0711
CAATGGCG	-0.142
TCGAGGCA	-0.0565
AGCTCGAA	0.133
TCATTCCA	-0.0852
GTGCCGCA	0.0177
CAGCCGGA	0.0121
AATACTGC	0.0709
ACCAGGGG	-0.206
AAATCGAG	-0.0701

Sequence	PBM E-score
CGGCCTTC	0.0185
CCATGTAC	0.0282
ACTAATAC	0.134
GGTTTGTA	-0.079
CGCTGCAC	0.0403
CTGTTAAA	-0.059
GCCGTAAC	0.139
CAAGCCAC	-0.252
AGACCCTA	-0.241
ATTCAGCG	0.203
AAATACGC	0.194
AAGTCTTC	-0.116
CGGCACAA	-0.027
AAATCCGC	-0.166
GACCCACA	0.154
ACAATTCG	0.131
AGATGTTC	-0.137
CCGCCCGA	-0.104
ATACGAAA	0.463
CAGGTATC	-0.0891
ATTACAAA	0.0328
TCACCACA	-0.0241
AACAATAC	0.191
CATTTTTC	0.0145
AATGCGCA	0.0276

Sequence	PBM E-score
AGTTACGG	0.138
CTTCGCAC	0.185
TGGAACAA	-0.0166
GTCTCATA	0.00156
ACAAGAGC	-0.117
GTGCGTAA	0.121
CAGACAGC	-0.262
AATTCCTG	-0.267
ATGTATTG	0.0849
TTAACAAA	0.183
ACCAATAC	-0.0292
AGAGAGCA	-0.163
CGATACAA	0.148
CACAAATA	0.0052
GCGTCGCA	0.23
AGGGTGCG	-0.0528
CCGCGCGG	0.263
CGGGTCCA	-0.181
ACAATACA	0.111
GCCCGCTA	0.0508
CGAATTAC	0.119
TGATGACA	-0.0803
TCCCGCGA	0.129
GAGATATC	0.145
ACTTATGC	0.0832

Sequence	PBM E-score
CAAAACTC	-0.0641
GGCGAACC	0.0118
CGCCGTAG	0.119
ATGCCACA	-0.24
GGAGGTAC	0.121
CCCCATTC	0.00876
GAAACTGC	-0.0317
TAATCATA	-0.0103
CGAGTTCC	0.167
CCACCAGC	0.0439
GCCGGGAC	-0.149
GACGCCGA	0.0726
AGGAGCGG	-0.232
AAGGCCAC	-0.207
GCATGACC	-0.227
GACCGTCA	-0.179
TATGAATA	0.188
AGTACCTA	-0.104
CACTTTCA	-0.153
GTAAACAC	0.269
AGTTAACA	0.0269
CCATACCG	-0.122
ATAGGGCA	-0.357
AACAGCAT	-0.125
CCCTCGAA	-0.00252

Sequence	PBM E-score
GCAACTTA	-0.108
GTGCTAAA	-0.00649
ACCACTAC	-0.145
CATAGCCG	-0.21
CGTGCACA	-0.214
AGTTCGAC	-0.117
AATGACCA	-0.193
TCGGAAAA	0.269
GCTCCGCA	0.00122
ATGCATTC	0.058
AGCCAACG	-0.0829
GACATATC	0.00761
AGCGAACT	0.0796
CCTCGAGC	-0.0414
CAGAACAA	0.0159
CCCAGGAG	-0.22
CCAGGGCA	-0.108
ACGGGATA	0.241
AGTACTTA	0.0475
ATAAGGTC	0.0235
GCTTTACA	0.0447
ACATAGGG	-0.235
CGGATCAG	0.0613
GATAAACA	-0.143
CAACATCG	0.0379

Sequence	PBM E-score
ACGGGTAT	0.106
GGCAACTA	-0.282
AGTCAAAC	0.153
GCAAACAA	0.0626
AATTCGGA	0.191
CTCGTTAA	0.437
GGCGTCCA	-0.371
CAACGTTG	0.165
ATCTTTGC	0.0357
ACGTTTAA	0.365
CAACTAAA	-0.126
AACGAGTT	0.41
GCCATCAC	-0.177
CCCATTGA	-0.171
GCACTCTA	-0.0709
ATGTATGA	-0.00046
CGAGGCTA	0.182
CAAGTAAC	-0.0866
AGCCTTGG	-0.234
CAACCAGA	0.102
CCCAGAAG	-0.187
AACTAGTA	0.0139
AGAATACT	0.0158
AAGTGTCC	-0.169
AACATCTC	-0.0822

Sequence	PBM E-score
GCTCCAAC	-0.0433
GTAACCTA	0.00094
ACGATCAG	0.224
CTGAGCCA	-0.299
TGAAAGCA	0.00634
AACGAAAC	0.389
GGGCCCTA	-0.275
GGCGTCAC	-0.0293
AAACTTTG	-0.0353
ATGTTAAG	-0.0147
GAAATCCC	-0.0904
ACGAGCTA	0.39
GGTCTGGA	-0.147
CTTCCACA	-0.2
ATCGCCAC	-0.016
AGGATTAC	-0.0965
CCTAAAAC	-0.096
TACTCATA	-0.0103
CAGGCGCC	-0.148
AAGCGCAC	0.0929
GCCATAAC	-0.275
CTTGATAC	0.0141
GAGCACTC	0.122
GGACACCA	-0.149
CGCAGCCC	-0.123

Sequence	PBM E-score
GGACAGCC	-0.00816
GGCCGACA	0.0235
CGGCTTCC	-0.146
AGCGGCCG	0.11
GCGCTAGC	-0.0399
AACCCTCA	-0.0419
CACATTGG	-0.271
CGGCTGAA	-0.0138
ATCAATCA	0.0946
CCGTGTGC	-0.19
TAGGTTGA	-0.169
ATCTGGAG	-0.176
CCTTCGGC	-0.208
GCAAGACC	-0.0795
CCGGCTAG	-0.254
GGCCACCC	-0.126
CAGGTTGC	-0.152
GTGTATTA	0.0757
GGGAGAAA	-0.141
